Experimental data published in PubChem BioAssay AID1347417 (National Center for Advancing Translational Sciences (NCATS), 2020).
Hit rate of the full screen: of about 120,000 compounds, about 5,300 (4.4%) were called active. Inconclusive results, whose numbers are uncertain, are shown with a selection of clear calls. The call rests on the fitted dose curve; in most records, active means well fitted inhibition curve with a large enough effect; inconclusive means small, poorly fitted or top-dose-only effect; inactive means no such curve, though single readings can be large or run the other way. Where the call is inconclusive, the potency comes from a doubtful curve fit.

Assay: qHTS Primary assay for Inhibitors of Plasmodium falciparum Dd2 growth in vitro; further: nearly all actives have a fitted effect of over 65% in size;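 on activity, negative = inhibition: plate controls were DMSO vehicle for no effect and reference drug for full effect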
Settings: P. falciparum Dd2 growth, SYBR Green, 72 h; activity, negative = inhibition: at 28.9 µM (top of the series) unless noted; series mostly up to 28.9 µM
Outline: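 Infected erythrocytes (Dd2, 0.3% parasitemia, 2.5% hematocrit final) are added to compound in RPMI-1640/Albumax II medium, grown 72 h at 37C in low oxygen, then lysed with saponin/Triton-X containing SYBR Green and read by fluorescence.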
Potency means the concentration at half of the fitted maximal effect; tags describe the fitted curve by direction and shape.

Structure (SMILES) | Potency | outcome | activity, negative = inhibition
COc1ccc(NC(=O)c2cc(S(=O)(=O)N3CCCCCC3)cn2C)cc1Cl | inconclusive: 17.8 µM [inhibitor, single point] |  | 
CCc1ccccc1NC(=O)Nc1nnc(N(C)Cc2ccccc2)s1 | inconclusive: 17.8 µM [inhibitor, single point] |  | 
CCN(C(=O)CCC(=O)N1CCC(C)(c2noc(-c3ccccn3)n2)CC1)c1ccccc1 |  | inactive | 
C=CCNC(=O)[C@@H]1CCCN1[C@@H](C(=O)NC)c1ccccc1OC |  | inactive [at 44.1 µM] | 
CN(C)c1ccc(C2C=C(c3ccccc3)Nc3nnnn32)cc1 (stereo not given) | inconclusive: 6.31 µM [inhibitor, partial curve, poor fit] |  | 
COc1cccc(CN2CCCOCCNC(=O)[C@@H]3CCCC[C@@H]32)c1OC | inconclusive: 7.08 µM [inhibitor, partial curve, poor fit] |  | 
Cc1ccc(-c2noc([C@@H]3Cc4nc[nH]c4CN3C(=O)Nc3ccccc3)n2)cc1 | inconclusive: 14.1 µM [inhibitor, single point] |  | 
COc1ccc2[nH]c(=O)c(CCC(=O)NCCCN3CCCC(C)C3)cc2c1 (stereo not given) |  | inactive | 
COc1cc(NC(=O)CCc2nc3cccnc3n2Cc2cccs2)cc(OC)c1OC | inconclusive: 11.2 µM [inhibitor, single point] |  | 
O=C(CCc1nc2cccnc2n1-c1ccccc1)Nc1ccc(Cl)c(Cl)c1 | inconclusive: 8.91 µM [inhibitor, partial curve, poor fit] |  | 
Cc1ccsc1C(=O)N1CCC(N2C(=O)C(OCC3CC3)C23CCCCC3)CC1 (stereo not given) | inconclusive: 10 µM [inhibitor, partial curve, poor fit] |  | 
Cc1cccc(C(=O)NCCc2noc(-c3cccnc3)n2)c1 |  |  | inactive: -5.42%
CCC(c1cccs1)N1C(=O)[C@H]2CN(S(=O)(=O)c3ccc(F)c(F)c3)C[C@H]2C1=O (stereo not given in full) |  |  | inactive: 2.64%
COc1ccc([S+](=O)([O-])c2nnn3c2nc(N2CCC(F)CC2)c2ccccc23)cc1 | inconclusive: 10 µM [inhibitor, partial curve, poor fit] |  | 
C#C[C@H]1CN2CC[C@H]1C[C@@H]2CNCc1cccc(Cl)c1 | inconclusive: 0.794 µM [inhibitor, full curve, poor fit] |  | 
CCc1ccccc1N(C)C(=O)c1cn(-c2cccc(OC)c2)c(=O)c2ccccc12 | inconclusive: 10 µM [inhibitor, single point] |  | 
Fc1ccc(CNC2(Cc3cc(-c4ccc(F)cc4)on3)COC2)cc1 |  |  | inactive: 19.8% [at 44.1 µM]
Cc1nc(-c2c3n(c(=O)n(Cc4ccc(Cl)cc4)c2=O)CCCCC3)no1 | inconclusive: 17.8 µM [inhibitor, single point] |  | 
O=C1CC2CCCC(C1)N2C(=O)c1cncc(Br)c1 |  |  | inactive: 8.12% [at 44.1 µM]
O=C(c1ccc(F)c(F)c1)N1CCN(C(=O)c2nnn3c2COC(c2ccc(Cl)cc2)C3)CC1 (stereo not given) | inconclusive: 17.8 µM [inhibitor, single point] |  | 

Structure (SMILES) | Potency | outcome | activity, negative = inhibition
CCc1cc(CN2C[C@H](NC(=O)c3ncn[nH]3)C[C@H]2C(=O)NC(C)C)on1 |  |  | inactive: 2.89%
CCOC(=O)c1ccc(NC(=O)N2Cc3[nH]cnc3C[C@H]2c2nc(-c3ccncc3)no2)cc1 | inconclusive: 12.6 µM [inhibitor, single point] |  | 
O=C(CCn1cncn1)N1CCC2(CC1)[C@H](O)C[C@@H]2OCCO |  |  | inactive: -5.81%
Cc1ccc(-n2ncc(C(=O)Nc3ccc4c(c3)OCO4)c2C2CCN(C(=O)OC(C)(C)C)CC2)c(C)c1 | inconclusive: 5.01 µM [inhibitor, partial curve, poor fit] |  | 
O=C1CCN(S(=O)(=O)c2ccc3c(c2)OCCO3)CCCCCCN1 |  | inactive | 
Cc1cc(C(=O)N2CCCN(Cc3ccncc3)C(c3ccccc3)CC(=O)NCC2)nn1C (stereo not given) | inconclusive: 17.8 µM [inhibitor, single point] |  | 
CN1CCCCCCN(C(=O)Nc2ccc3c(c2)OCCO3)CCC1=O |  | inactive | 
COCC1CN(Cc2ccc(Br)cc2)CC12CCNCC2 (stereo not given) | inconclusive: 3.55 µM [inhibitor, full curve, poor fit] |  | 
Cn1nc(-c2ccc(F)cc2)cc1[C@H]1CN2CC[C@H]1C[C@@H]2CNCc1ccccn1 | active: 2.82 µM |  | 
O=C1Cc2c(-c3cccc(N4CCOCC4)c3)n[nH]c2CN1Cc1ccccn1 | inconclusive: 12.6 µM [inhibitor, partial curve, poor fit] |  | 
Cc1ccc(S(=O)(=O)Nc2cc3c(cc2C)n(C)c(=O)c(=O)n3C)c(C)c1 | inconclusive: 11.2 µM [inhibitor, single point] |  | 
CN(C)c1cccc(-c2cc(-c3cn[nH]c3)c3cncn3c2)c1 | inconclusive: 15.8 µM [inhibitor, single point] |  | 
Cc1cc(C)cc(Nc2cc(C(=O)NC3CCC(C)CC3)c3ccccc3n2)c1 (stereo not given) | inconclusive: 3.98 µM [inhibitor, full curve, poor fit] |  | 
CCOC(=O)N1CCc2c(sc3c2c(=O)n(Cc2ccccc2)c(=O)n3CC(=O)Nc2ccc(C)cc2C)C1 | inconclusive: 3.98 µM [inhibitor, single point] |  | 
Cc1nc(-c2ccccc2Br)cc([C@H]2CN3CC[C@H]2C[C@@H]3CNC(=O)c2ccccc2)n1 | inconclusive: 1 µM [inhibitor, partial curve, poor fit] |  | 
Cc1cnc(-c2ccccc2)n1CCNS(=O)(=O)c1ccccc1 | inconclusive: 5.62 µM [inhibitor, partial curve, poor fit] |  | 
CCOc1ccc(NC(=O)C2CC(=O)N(c3n[nH]c4cccc(F)c34)C2)cc1 (stereo not given) |  |  | inactive: 5.44%
CCOc1cc(CN2CCN(S(=O)(=O)c3ccc(C)cc3)CC2)ccc1OC | inconclusive: 8.91 µM [inhibitor, partial curve, poor fit] |  | 
COc1ccc(Cl)cc1C(=O)N1CCC2(CC1)N(c1ccccc1)C(=O)CS2(=O)=O | inconclusive: 17.8 µM [inhibitor, partial curve, poor fit] |  | 
O=C(COc1ccc(F)cc1)N1CCC(n2cc(-c3nc(-c4ccccc4)no3)nn2)CC1 | inconclusive: 2.82 µM [inhibitor, partial curve, poor fit] |  | 
